{"source": "the supplement of paper PMC11417369", "note": "Some of the results follow."}
{"test_system": "PF3D7_0420300 AP2 domain 1 (GST-tagged)", "test": "gcPBM binding intensity (ln(normalized median fluorescence intensity)); higher = stronger DNA binding", "in_short": "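Using an Agilent 4 × 180k array, primer-extended double-stranded 36-bp intergenic genomic probes and negative controls were exposed for 1 h to GST-fused P. falciparum DNA-binding domains expressed in E. coli. Binding was carried out in 1× PBS with 1% milk, 0.2 mg/ml BSA, 0.5% salmon testes DNA and 0.03% Triton X-100, and protein was detected with Alexa488 anti-GST antibody and a 488 nm scan. Binding intensity is the highest Masliner-normalised natural-log median intensity across replicate spots of either probe orientation.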"}
{"sequence": "TTTTCTTAATATTTCGTTTTACATAAACCTTTTAAA [CACACA_negctrl_site660]", "gcPBM binding intensity (ln)": 9.12}
{"sequence": "AATATAATATTATATAGTACATATTTCTTTTATTTT [XGTACX_site22]", "gcPBM binding intensity (ln)": 9.27}
{"sequence": "TATATATATATAAGTAGTACAATAATATATTATTTT [XGTACX_site6450]", "gcPBM binding intensity (ln)": 9.3}
{"sequence": "TTTTACATCATATATAGTACATATATTATACATATA [XGTACX_site8590]", "gcPBM binding intensity (ln)": 9.28}
{"sequence": "TATATATATATAATTGCACACATCAAGTTTGATGTT [CACACA_site1288]", "gcPBM binding intensity (ln)": 9.29}
{"sequence": "AAATGTACAGGACGCACACACATATTTATATTTATA [CACACA_site7689]", "gcPBM binding intensity (ln)": 9.67}
{"sequence": "GTTGTATACAATAATGTGCACATATTAATTTGAACT", "gcPBM binding intensity (ln)": 9.36}
{"sequence": "TTTTTTTTTCCTTTTTTTTAAATATTAAAAATGGGA [TGCATGCA_negctrl_site494]", "gcPBM binding intensity (ln)": 8.69}
{"sequence": "TAAGTTTTGTTTTTTTGTACTCATTCATACTATCAT [XGTACX_site3638]", "gcPBM binding intensity (ln)": 9.44}
{"sequence": "CTTATTTACTATTTTTCACACATTACAGATAAACAA [CACACA_site6095]", "gcPBM binding intensity (ln)": 9.25}
{"sequence": "TAAATATATATATATAGTACAATATAATTATGATAT [XGTACX_site258]", "gcPBM binding intensity (ln)": 9.29}
{"sequence": "TCATTGAAAAAAATCTGTACTGACTATATAGTTGCA [XGTACX_site1566]", "gcPBM binding intensity (ln)": 8.92}
{"sequence": "TATAATATATGTATATGTACTTATGTTGAGAAACAT [XGTACX_site2117]", "gcPBM binding intensity (ln)": 9.19}
{"sequence": "TACCTAATATGTTATACACACATTATGAGTACATAT [CACACA_site2466]", "gcPBM binding intensity (ln)": 9.57}
{"sequence": "GAATAATATATATGTTCACACATGGTCTTTATTATA [CACACA_site5457]", "gcPBM binding intensity (ln)": 9.45}
{"sequence": "GTTATATAAACATATGCATGTGAAGTGTTTATTAAT [TGCATGCA_site183]", "gcPBM binding intensity (ln)": 9.22}
{"sequence": "TATGAGAAAAAAAGTACATGCACAAAATGTATATGT [TGCATGCA_site789]", "gcPBM binding intensity (ln)": 9.38}
{"sequence": "ATTATATAAACCAAATGTACAAAAAGGTCGTAGTGG [XGTACX_site1298]", "gcPBM binding intensity (ln)": 9.77}
{"sequence": "CAACATTGTTCCTATTGTACATGAACTGTTCATACG [XGTACX_site4070]", "gcPBM binding intensity (ln)": 9.11}
{"sequence": "ATTATTAAGGTTTATTCAAAAAAGACGTTTTTAAAT [CACACA_negctrl_site1059]", "gcPBM binding intensity (ln)": 8.95}
{"sequence": "AGACACGTATACGATGCACACGTATGCTTTATATAT [CACACA_site9363]", "gcPBM binding intensity (ln)": 9.45}
{"sequence": "TTTTTTTTTTTTTTTGCACACTTAAATTTGGTGGCT [CACACA_site5319]", "gcPBM binding intensity (ln)": 8.98}
{"sequence": "GCTTAATACAGAATAACACACAAAATAAATAAATAA [CACACA_site4041]", "gcPBM binding intensity (ln)": 9.56}
{"sequence": "TATATTTGTGCGTGTACACATTTGAAAAAATATATA [CACACA_site5079]", "gcPBM binding intensity (ln)": 9.13}
{"sequence": "TCTTGATTAACTTAAAAAAAAAAAAAAAAAAAAAAA [CACACA_negctrl_site458]", "gcPBM binding intensity (ln)": 8.53}
